Assay results from the supplement of paper PMC4967469.
IC50 is the fitted dose that halves viability relative to control wells, and lower means more sensitive; a limit (>, <) means that the fit lies beyond the doses tested. AUC is the area under the same curve over the 256-fold range up to the top dose, as a fraction; it is 1 without any effect and falls as sensitivity rises. For part of these data: Any top dose called inferred was calculated from the reported fits. For part of these data: An entry number marks a drug with two screens in the source, which often give different values.

Assays:
Assay in all cases: Viability of human cancer cell lines after 72 h of drug (GDSC screen)
[1] = compound: Cc1c(N)nc([C@H](CC(N)=O)NC[C@H](N)C(N)=O)nc1C(=O)N[C@H](C(=O)N[C@H](C)[C@@H](O)[C@H](C)C(=O)N[C@H](C(=O)NCCc1nc(-c2nc(C(=O)NCCC[S+](C)C)cs2)cs1)[C@@H](C)O)[C@@H](OC1OC(CO)C(O)C(O)C1OC1OC(CO)C(O)C(OC(N)=O)C1O)c1cnc[nH]1 [Bleomycin]
Method: (§1)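 Human cancer cell lines in 384-well plates, medium with 10% serum, drug for 72 h over a 256-fold dose range (nine 2-fold or five 4-fold steps up to the top dose). Adherent lines were fixed and stained with the nucleic acid dye Syto60, suspension lines read with resazurin; signal relative to control wells, capped at 0 and 100%. One two-parameter sigmoid per drug and line, fitted in a mixed model over all curves with the slope shared within a line.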

[2] = compound: CCCC(=O)OCc1ccc(OC(=O)/C=C(C)/C=C/C=C(C)/C=C/C2=C(C)CCCC2(C)C)cc1 [VNLG/124]; conditions: top dose 5.12 µM; top dose inferred
Method: as §1

[3] = compound: CN(NC(=O)CC(=O)NN(C)C(=S)c1ccccc1)C(=S)c1ccccc1 [Elesclomol]; conditions: top dose 0.2 µM; top dose inferred
Method: as §1

[4] = compound: O=C(Nc1cccc(Nc2ncc(Br)c(NCCc3cnc[nH]3)n2)c1)N1CCCC1 [BX-912]; conditions: top dose 10.24 µM; top dose inferred
Method: as §1

[5] = compound: O=S(=O)(O)c1ccc2cc(N=Nc3cc(S(=O)(=O)O)c4cccnc4c3O)ccc2c1 [NSC-87877]; conditions: top dose 16 µM; top dose inferred
Method: as §1

[6] = compound: O=C(/C=C/c1ccc(CN(CCO)CCc2c[nH]c3ccccc23)cc1)NO [LAQ824]; conditions: top dose 1.024 µM; top dose inferred
Method: as §1

[7] = compound: Cc1ccc(NC(=O)c2ccc(CN3CCN(C)CC3)cc2)cc1Nc1nc(-c2cccnc2)cs1 [Masitinib]; conditions: top dose 20 µM
Method: as §1

[8] = compound: COc1cc(N2CCC(C(N)=O)CC2)ccc1Nc1nc(N)c(Cl)c(Nc2ccccc2S(=O)(=O)C(C)C)n1 [HG-5-88-01]; conditions: top dose 10 µM; top dose inferred
Method: as §1

[9] = compound: O=C(Nc1ccc(OC(F)(F)F)cc1)c1sccc1NCc1ccnc2ccccc12 [OSI-930]; conditions: top dose 10.24 µM
Method: as §1

[10] = compound: CC/C(=C(\c1ccccc1)c1ccc(OCCN(C)C)cc1)c1ccccc1 [Tamoxifen]; conditions: top dose 5 µM
Method: as §1

[11] = top dose 50 µM, screen: GDSC drug entry 1378, top dose inferred
[12] = top dose 64 µM, screen: GDSC drug entry 190

Cell Line | AUC [1, 11] | IC50 [1, 11] [µM] | AUC [1, 12] | IC50 [1, 12] [µM] | AUC [2] | IC50 [2] [µM] | AUC [3] | IC50 [3] [µM] | AUC [4] | IC50 [4] [µM] | AUC [5] | IC50 [5] [µM] | AUC [6] | IC50 [6] [µM] | AUC [7] | IC50 [7] [µM] | AUC [8] | IC50 [8] [µM] | AUC [9] | IC50 [9] [µM] | AUC [10] | IC50 [10] [µM]
EW-16 (Ewing sarcoma, adherent) | 0.364 | 1.29 | 0.052 | < 0.25 | 0.893 | > 5.12 | 0.244 | 0.0022 | 0.883 | > 10.2 | 0.981 | > 16 | 0.311 | 0.0184 | 0.87 | > 20 | 0.726 | 2.84 | 0.952 | > 10.2 | 0.973 | > 5
TGBC1TKB (biliary tract, adherent) | 0.916 | > 50 | 0.805 | 32.1 | 0.989 | > 5.12 | 0.676 | 0.0386 | 0.989 | > 10.2 | 0.984 | > 16 | 0.636 | 0.151 | 0.926 | > 20 | 0.94 | > 10 | 0.983 | > 10.2 | 0.988 | > 5
RT4 (bladder, adherent) | 0.588 | 5.53 | 0.048 | < 0.25 | 0.966 | > 5.12 | 0.97 | > 0.2 | 0.804 | 5.47 | 0.986 | > 16 | 0.647 | 0.167 | 0.927 | > 20 | 0.984 | > 10 | 0.986 | > 10.2 | 0.986 | > 5
VMRC-RCZ (kidney, adherent) | 0.806 | 30.8 | 0.374 | 1.69 | 0.978 | > 5.12 | 0.812 | 0.129 | 0.847 | 9.47 | 0.982 | > 16 | 0.448 | 0.0451 | 0.874 | > 20 | 0.976 | > 10 | 0.968 | > 10.2 | 0.979 | > 5
NCI-H441 (lung adenocarcinoma, adherent) | 0.803 | 37.8 | 0.595 | 8.08 | 0.975 | > 5.12 | 0.981 | > 0.2 | 0.978 | > 10.2 | 0.981 | > 16 | 0.501 | 0.0646 | 0.969 | > 20 | 0.825 | 9.71 | 0.967 | > 10.2 | 0.934 | > 5
NCI-H1648 (lung adenocarcinoma, adherent) | 0.866 | 49.4 | 0.687 | 13.8 | 0.964 | > 5.12 | 0.842 | 0.154 | 0.911 | > 10.2 | 0.979 | > 16 | 0.478 | 0.0554 | 0.89 | > 20 | 0.666 | 1.87 | 0.938 | > 10.2 | 0.983 | > 5
COR-L23 (large cell lung carcinoma, adherent) | 0.463 | 2.48 | 0.091 | < 0.25 | 0.988 | > 5.12 | 0.957 | > 0.2 | 0.891 | > 10.2 | 0.961 | > 16 | 0.358 | 0.0262 | 0.876 | 18.9 | 0.913 | > 10 | 0.902 | > 10.2 | 0.981 | > 5
GAK (melanoma, adherent) | 0.818 | 26.4 | 0.855 | 47.2 | 0.986 | > 5.12 | 0.938 | > 0.2 | 0.988 | > 10.2 | 0.987 | > 16 | 0.481 | 0.0571 | 0.977 | > 20 | 0.945 | > 10 | 0.979 | > 10.2 | 0.987 | > 5
OCI-LY-19 (B-cell lymphoma, suspension) | 0.466 | 2.55 | 0.075 | < 0.25 | 0.903 | > 5.12 | 0.544 | 0.0163 | 0.317 | 0.206 | 0.984 | > 16 | 0.298 | 0.0182 | 0.877 | 17.4 | 0.913 | > 10 | 0.888 | 10 | 0.95 | > 5
EC-GI-10 (oesophagus, adherent) | 0.518 | 3.49 | 0.911 | > 64 | 0.986 | > 5.12 | 0.709 | 0.0484 | 0.989 | > 10.2 | 0.988 | > 16 | 0.812 | 0.542 | 0.989 | > 20 | 0.968 | > 10 | 0.979 | > 10.2 | 0.941 | > 5
SW626 (ovary, adherent) | 0.654 | 9.08 | 0.36 | 1.52 | 0.984 | > 5.12 | 0.712 | 0.0563 | 0.971 | > 10.2 | 0.984 | > 16 | 0.425 | 0.0384 | 0.872 | > 20 | 0.904 | > 10 | 0.796 | 5.84 | 0.975 | > 5
GT3TKB (stomach, adherent) | 0.091 | < 0.195 | 0.05 | < 0.25 | 0.984 | > 5.12 | 0.622 | 0.0259 | 0.97 | > 10.2 | 0.979 | > 16 | 0.472 | 0.0541 | 0.988 | > 20 | 0.985 | > 10 | 0.976 | > 10.2 | 0.927 | > 5
